# From PubChem BioAssay AID1508642 (National Center for Advancing Translational Sciences (NCATS), 2021)
# The whole screen tested about 43,000 compounds, of which about 200 (0.47%) were called active. Not shown: some 12% with an inconclusive outcome. The call rests on the fitted dose curve; in most records, active means well fitted cell-killing curve with a large enough effect; inconclusive means small, poorly fitted or top-dose-only effect, or effect the other way; inactive means flat fitted curve, though single readings scatter. This is one part of the list.
# Experiment: Cell viability qHTS assay in S16 Pmp22-F2sN cells; further: nearly all actives have a fitted effect of over 65% in size
# Details: S16 Pmp22-F2sN Schwann cells viability, CellTiter-Glo, 24 h; series mostly up to 57.5 µM; activity change, negative = cytotoxicity: at the top concentration
# Outline: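 Viability was measured by CellTiter-Glo luminescence (15 min, room temperature). This followed 24 h at 37 °C of compound exposure (23 nL pin transfer) in S16 Pmp22-F2sN Schwann cells, 500-1,000 per well.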
# On the % scale 0 is the no-effect control and ±100 the full control effect; potency means the concentration at half of the fitted maximal effect.
SMILES,"activity change, negative = cytotoxicity",Potency
CC1CCN(S(=O)(=O)c2ccc3nc(N4CCN(c5ccccc5F)CC4)ccc3c2)CC1,inactive: -4.63%,
COc1ccc(/C=C(\C#N)c2nc(-c3cc4ccccc4oc3=O)cs2)cc1OC,inactive: 22.9%,
Cc1ccc(-c2onc(C)c2C)cc1S(=O)(=O)NC1CCC(C)CC1 (configuration not stated),inactive: -5.04%,
CCOc1cc(C2CC(=O)Nc3c2c(C)nn3-c2nc(C)cc(C)n2)ccc1O (configuration not stated),inactive: 1.64%,
COC(=O)c1cccnc1-n1c(=O)c2cccnc2n(CC(=O)Nc2cccc(C(F)(F)F)c2)c1=O,inactive: -6.9%,
CCOc1ccccc1CNC(=O)c1ccc(Cn2c(=O)c3cccn3c3cccnc32)cc1,inactive: -0.722%,
CC(C)c1ccc(-c2noc(SCC(=O)N3CCCCC3)n2)cc1,inactive: -6.44%,
CCCN(CCC)CCCNC(=O)c1nn(C)c2c1CS(=O)(=O)c1ccccc1-2,inactive: -7.48%,
COc1cc(C)ccc1OCCSc1nnc(-c2cccs2)o1,inactive: -5.27%,
O=C(/C=C/c1ccccc1)Nc1cc(-c2nc3ccccc3o2)ccc1Cl,inactive: -4.95%,
FC(F)(F)c1cccc(N2CCN(Cc3nnc(-c4ccccc4)o3)CC2)c1,inactive: 18.7%,
CCN(CC)c1ccc(C2C(C(N)=O)=C(C)Nc3nc(SCc4ccccc4)nn32)cc1 (configuration not stated),inactive: 14.2%,
O=c1c2ccccc2nc2sc(Nc3cccc(C(F)(F)F)c3)nn12,inactive: -3.18%,
COc1ccccc1CNC(=O)c1cnn(-c2ccc(F)cc2F)c1C1CCN(C(=O)OC(C)(C)C)CC1,inactive: -9.83%,
Cc1ccc(N2CC(NC(=O)Cc3ccc(F)cc3)CC2=O)cc1C (configuration not stated),inactive: 11.4%,
COCCN1CN=C(NS(=O)(=O)c2ccc(C)cc2)NC1,inactive: 8.92%,
COc1ccc(-c2noc(CCC(=O)Nc3ccccc3Cl)n2)cc1OC,inactive: -1.03%,
CSc1cccc(NS(=O)(=O)c2ccc3[nH]cc(C(=O)N4CCCCCC4)c(=O)c3c2)c1,inactive: 0.769%,
Cc1cccc(Cc2c(C)nc3nc(SCC(=O)NC4CCCCC4)nn3c2C)c1,inactive: 2.74%,
Fc1ccc(-c2noc3ncnc(NCc4cccc(Cl)c4)c23)cc1,inactive: 4.69%,
COc1ccc(/C=C\c2onc(C)c2S(=O)(=O)N2CCC(C(=O)Nc3ccc(C)c(F)c3)CC2)cc1,inactive: -2.21%,

SMILES,"activity change, negative = cytotoxicity",Potency
CCOC(=O)c1nnc2c(-c3ccc(F)cc3)c(C)nn2c1N,inactive: 0.663%,
Cc1cccc(C(=O)NCc2cn3cccc(C)c3n2)c1,inactive: 20.4%,
CC(C)c1ccc(Cc2cnc(NC(=O)c3ccc4c(c3)CC(c3ccccc3)OC4=O)s2)cc1 (configuration not stated),inactive: 0.26%,
COc1ccccc1N1CCN(Cc2cc(COC(C)C)c3cccnc3c2O)CC1,,active: 7.08 µM
CCOC(=O)C1CCCN(C(=O)Cn2nc(C)n3c(cc4c(OC)cccc43)c2=O)C1 (configuration not stated),inactive: 18.5%,
Cc1ccc(-n2c(=O)c3cccnc3n2CC(=O)Nc2ccccc2C(F)(F)F)cc1C,inactive: 8.12%,
COc1cccc(CNC(=O)C2CCCN(S(=O)(=O)c3cn(C)cn3)C2)c1 (configuration not stated),inactive: -3.39%,
Cc1ccc(C)c(NC(=O)C(NS(=O)(=O)c2ccc3c(c2)CCC(=O)N3)c2ccccc2)c1 (configuration not stated),inactive: 5.05%,
CC[C@H](C)NC(=O)CCCc1nnc2n(CCC(C)C)c(=O)c3sccc3n12,inactive: 2.46%,
COc1ccccc1OC(C)C(=O)N1CCN(CCc2ccccn2)CC1 (configuration not stated),inactive: 7.99%,
COc1ccc(-c2cn3c(n2)sc2cc(C(=O)NC4CCCCC4)ccc23)cc1,inactive: 1.79%,
Cc1[nH]c2ccccc2c1SCCNC(=O)c1ccc(F)cc1,inactive: -23.9%,
CCOc1ccccc1NC(=O)CSc1nc(-c2cccs2)cc(C(F)(F)F)n1,inactive: 21.5%,
Cc1cc(-c2ccc(C)c(S(=O)(=O)NCCc3ccccc3)c2)on1,inactive: -2.27%,
O=C(Nc1cc(-c2nc3ccccc3o2)ccc1Cl)c1cc([N+](=O)[O-])ccc1N1CCOCC1,inactive: 9.55%,
COc1cccc(CNC(=O)C2CCN(c3ncnc4c3nc3n4CCCCC3)CC2)c1,inactive: 2.1%,
Cc1ccc(Nc2c(-c3cccc(Cl)c3)nc3cccc(C)n23)cc1,inactive: -2.49%,
CCC(=O)N1c2ccccc2CC1C(=O)NCCN1CCN(c2ccccc2F)CC1 (configuration not stated),inactive: 7.17%,
Cc1ccc(NC(=O)CSc2nc(=O)n(CCN3CCOCC3)c3c2CCC3)cc1Cl,inactive: -2.91%,
Cn1c(=O)nc2n(-c3ccc(Br)cc3)c3cccc(Cl)c3cc-2c1=O,inactive: 0.877%,
Cc1ccc(C)c(N2CCN(S(=O)(=O)c3ccc(C4CCCCC4)cc3)CC2)c1,inactive: 0.511%,

SMILES,"activity change, negative = cytotoxicity",Potency
CC(C)(C)OC(=O)N1CCC(c2c(C(=O)NCc3ccccn3)cnn2-c2ccccc2Cl)CC1,inactive: 11.4%,
CN(C)C1(CNC(=O)COc2cccc(Cl)c2)CCCCC1,inactive: 16.1%,
Cn1cc(-c2cc3n(n2)CCC(=O)N3CC(=O)NCc2ccccc2)c2ccccc21,inactive: 15.3%,
CCOC(=O)c1cc(OC(=O)c2cc(Cl)ccc2OC)n(-c2ccccc2)n1,inactive: -0.641%,
CCc1ccc(S(=O)(=O)c2nnn3c2nc(NCCC(C)C)c2cc(Cl)ccc23)cc1,inactive: -21.7%,
CCc1ccccc1NC(=O)CSc1nccn1C,inactive: -0.644%,
COc1ccccc1Nc1ncnc2c1nc1n2CCCCC1,inactive: 6.47%,
CCOc1ccc(NS(=O)(=O)c2ccc3[nH]cc(C(=O)NCCc4ccccc4)c(=O)c3c2)cc1,inactive: -7.43%,
Cn1c(SCC(=O)Nc2ccccc2F)nc2c([nH]c3ccccc32)c1=O,inactive: 2.46%,
CC(=O)c1ccc(OC(=O)c2c(-c3ccccc3Cl)noc2C)cc1,inactive: 19%,
COc1ccc2c(c1)c(CC(=O)Nc1cc(C)c(OC)c(C)c1)c(C)n2C(=O)c1ccc(Cl)cc1,inactive: -1.06%,
O=C(COc1ccc(Cl)cc1Cl)Nc1ccc(C(=O)OC2CCCCC2)cc1,inactive: 1.2%,
Cn1nc(C(=O)Nc2cccc(C(F)(F)F)c2)c2c1-c1ccccc1S(=O)(=O)C2,inactive: -0.832%,
CCCN(CCC)S(=O)(=O)c1ccc(C(=O)N2CCn3c4c(c5cc(C)ccc53)CCCC42)cc1 (configuration not stated),inactive: -15.2%,
Cc1ccc(S(=O)(=O)c2cn(CC(=O)Nc3ccccc3)c3cc4c(cc3c2=O)OCO4)cc1,inactive: -8.36%,
Cc1ccc(-c2nc(CS(=O)CC(=O)O)c(C)o2)cc1 (configuration not stated),inactive: 12.3%,
CC(=O)c1cc(-c2ccccc2)n(CC(=O)Nc2ccc(C)cc2C)c1C,inactive: -22.2%,
Cc1cccc(N2CCN(C(=O)c3ccc4c(c3)CCN4S(=O)(=O)c3ccccc3)CC2)c1C,inactive: 0.549%,
CCc1ccc(Nc2nc3ccccc3c3nnc(C)n23)cc1,inactive: -9.26%,
CCOc1ccccc1NC(=O)NC(CC)c1c(-n2cccc2)sc2c1CCN(C)C2 (configuration not stated),inactive: 14.7%,
